# According to paper PMC12820563:
# This is one part of the list. The list includes weakly bound sequences.
# Target: T1, MBP-FoxP3dN (UniProt Q99JB6)
# T1 sequence: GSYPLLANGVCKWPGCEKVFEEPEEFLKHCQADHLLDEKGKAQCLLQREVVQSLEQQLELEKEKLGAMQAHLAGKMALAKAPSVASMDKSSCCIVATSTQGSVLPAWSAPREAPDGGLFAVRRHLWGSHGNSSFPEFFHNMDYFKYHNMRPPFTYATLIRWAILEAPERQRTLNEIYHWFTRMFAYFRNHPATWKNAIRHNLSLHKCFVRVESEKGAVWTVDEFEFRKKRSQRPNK
# Test: PD-seq (MBP pull-down with sequencing)
# Settings: 20 mM Tris-HCl pH 7.5, 100 mM NaCl, 1.5 mM MgCl2, 0.4 uM protein, 0.1 uM dsDNA library, 30 min, room temperature, amylose pull-down; high values mean tight binding; double strand, one strand shown
row,Sequence,binding signal (RPM ratio (pull-down/input))
1,GATGATTGTTCTCCCAGCTGATGAATTTCTCAGTTCGAGTAAACAAATTTTCCTAATCTTTCTGTTCAAGCGCCATCTAC,0.213
2,GATGATTGTTCTCCCAGCTGATGAATTTTACTCGTCGAGTAAACAAATTTTCCTAATCTTTCTGTTCAAGCGCCATCTAC,0.295
3,GATGATTGTTCTCCCAGCTGATGAATTCCAAGGATCGAGTAAACAAATTTTCCTAATCTTTCTGTTCAAGCGCCATCTAC,0.174
4,GATGATTGTTCTCCCAGCTGATGAATTACCGGACTCGAGTAAACAAATTTTCCTAATCTTTCTGTTCAAGCGCCATCTAC,0.242
5,GATGATTGTTCTCCCAGCTGATGAATTTATTACATCGAGTAAACAAATTTTCCTAATCTTTCTGTTCAAGCGCCATCTAC,0.906
6,GATGATTGTTCTCCCAGCTGATGAATTAAAACGCTCGAGTAAACAAATTTTCCTAATCTTTCTGTTCAAGCGCCATCTAC,0.357
7,GATGATTGTTCTCCCAGCTGATGAATTCCACCACTCGAGTAAACAAATTTTCCTAATCTTTCTGTTCAAGCGCCATCTAC,0.469
8,GATGATTGTTCTCCCAGCTGATGAATTACTTATGTCGAGTAAACAAATTTTCCTAATCTTTCTGTTCAAGCGCCATCTAC,0.667
9,GATGATTGTTCTCCCAGCTGATGAATTAGAGCTCTCGAGTAAACAAATTTTCCTAATCTTTCTGTTCAAGCGCCATCTAC,0.326
10,GATGATTGTTCTCCCAGCTGATGAATTGTCCGTCTCGAGTAAACAAATTTTCCTAATCTTTCTGTTCAAGCGCCATCTAC,0.35
11,GATGATTGTTCTCCCAGCTGATGAATTGACGCTCTCGAGTAAACAAATTTTCCTAATCTTTCTGTTCAAGCGCCATCTAC,0.744
12,GATGATTGTTCTCCCAGCTGATGAATTATACGGCTCGAGTAAACAAATTTTCCTAATCTTTCTGTTCAAGCGCCATCTAC,0.356
13,GATGATTGTTCTCCCAGCTGATGAATTAGGCGAATCGAGTAAACAAATTTTCCTAATCTTTCTGTTCAAGCGCCATCTAC,0.432
14,GATGATTGTTCTCCCAGCTGATGAATTTGTTGATTCGAGTAAACAAATTTTCCTAATCTTTCTGTTCAAGCGCCATCTAC,7.3
15,GATGATTGTTCTCCCAGCTGATGAATTCTAGGTGTCGAGTAAACAAATTTTCCTAATCTTTCTGTTCAAGCGCCATCTAC,0.482
16,GATGATTGTTCTCCCAGCTGATGAATTCTAATCGTCGAGTAAACAAATTTTCCTAATCTTTCTGTTCAAGCGCCATCTAC,0.384
17,GATGATTGTTCTCCCAGCTGATGAATTTGCCAGCTCGAGTAAACAAATTTTCCTAATCTTTCTGTTCAAGCGCCATCTAC,0.472
18,GATGATTGTTCTCCCAGCTGATGAATTGGGGGGATCGAGTAAACAAATTTTCCTAATCTTTCTGTTCAAGCGCCATCTAC,0.37
19,GATGATTGTTCTCCCAGCTGATGAATTGAGGAGATCGAGTAAACAAATTTTCCTAATCTTTCTGTTCAAGCGCCATCTAC,0.248
20,GATGATTGTTCTCCCAGCTGATGAATTGTGGACATCGAGTAAACAAATTTTCCTAATCTTTCTGTTCAAGCGCCATCTAC,0.982

row,Sequence,binding signal (RPM ratio (pull-down/input))
1,GATGATTGTTCTCCCAGCTGATGAATTGGATCTGTCGAGTAAACAAATTTTCCTAATCTTTCTGTTCAAGCGCCATCTAC,0.271
2,GATGATTGTTCTCCCAGCTGATGAATTAGGCCCATCGAGTAAACAAATTTTCCTAATCTTTCTGTTCAAGCGCCATCTAC,1.08
3,GATGATTGTTCTCCCAGCTGATGAATTTGATTGGTCGAGTAAACAAATTTTCCTAATCTTTCTGTTCAAGCGCCATCTAC,5.03
4,GATGATTGTTCTCCCAGCTGATGAATTACTGCCTTCGAGTAAACAAATTTTCCTAATCTTTCTGTTCAAGCGCCATCTAC,1.77
5,GATGATTGTTCTCCCAGCTGATGAATTCGCGCAGTCGAGTAAACAAATTTTCCTAATCTTTCTGTTCAAGCGCCATCTAC,0.604
6,GATGATTGTTCTCCCAGCTGATGAATTCGTAAGGTCGAGTAAACAAATTTTCCTAATCTTTCTGTTCAAGCGCCATCTAC,0.308
7,GATGATTGTTCTCCCAGCTGATGAATTTGAGCTTTCGAGTAAACAAATTTTCCTAATCTTTCTGTTCAAGCGCCATCTAC,0.819
8,GATGATTGTTCTCCCAGCTGATGAATTTGTCAGATCGAGTAAACAAATTTTCCTAATCTTTCTGTTCAAGCGCCATCTAC,0.543
9,GATGATTGTTCTCCCAGCTGATGAATTTAACAAGTCGAGTAAACAAATTTTCCTAATCTTTCTGTTCAAGCGCCATCTAC,0.219
10,GATGATTGTTCTCCCAGCTGATGAATTAGAAAGATCGAGTAAACAAATTTTCCTAATCTTTCTGTTCAAGCGCCATCTAC,0.174
11,GATGATTGTTCTCCCAGCTGATGAATTAGCCCAGTCGAGTAAACAAATTTTCCTAATCTTTCTGTTCAAGCGCCATCTAC,0.209
12,GATGATTGTTCTCCCAGCTGATGAATTTCGGAGGTCGAGTAAACAAATTTTCCTAATCTTTCTGTTCAAGCGCCATCTAC,0.25
13,GATGATTGTTCTCCCAGCTGATGAATTGCTGTGTTCGAGTAAACAAATTTTCCTAATCTTTCTGTTCAAGCGCCATCTAC,1.37
14,GATGATTGTTCTCCCAGCTGATGAATTTCCCTGGTCGAGTAAACAAATTTTCCTAATCTTTCTGTTCAAGCGCCATCTAC,0.183
15,GATGATTGTTCTCCCAGCTGATGAATTCTGCCCGTCGAGTAAACAAATTTTCCTAATCTTTCTGTTCAAGCGCCATCTAC,2.06
16,GATGATTGTTCTCCCAGCTGATGAATTCGCCAGTTCGAGTAAACAAATTTTCCTAATCTTTCTGTTCAAGCGCCATCTAC,0.356
17,GATGATTGTTCTCCCAGCTGATGAATTAAGGCCATCGAGTAAACAAATTTTCCTAATCTTTCTGTTCAAGCGCCATCTAC,1.38
18,GATGATTGTTCTCCCAGCTGATGAATTGTAGTTCTCGAGTAAACAAATTTTCCTAATCTTTCTGTTCAAGCGCCATCTAC,1.39
19,GATGATTGTTCTCCCAGCTGATGAATTACCGTTCTCGAGTAAACAAATTTTCCTAATCTTTCTGTTCAAGCGCCATCTAC,0.537
20,GATGATTGTTCTCCCAGCTGATGAATTATAGTGTTCGAGTAAACAAATTTTCCTAATCTTTCTGTTCAAGCGCCATCTAC,1.13
